This is one part of the list. Rule as the data show it: active = 25% or less and inactive = the rest. Many values rest on one well or one pass, so single values are uncertain.
Tested on: Salmonella enterica serovar Typhimurium SL1344
Assay: intramacrophage bacterial GFP load (SAFIRE), percent of DMSO control (% of DMSO); higher = more intracellular bacteria (less inhibition)
Details: 25 µM; system: infected RAW 264.7 macrophages
Experimental: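 Secondary screen of the 553 primary hits at 25 µM. (i) S. Typhimurium SL1344 grown in Mueller-Hinton broth with 0.5 µg/mL polymyxin B, OD600 read after 18 h. (ii) SAFIRE assay: RAW 264.7 macrophages infected with S. Typhimurium sifB::gfp (MOI 30); compound added 2 h post-infection; cells fixed at 18 h; GFP-positive pixel fraction per macrophage imaged by confocal microscopy and expressed as % of DMSO control.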
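Also: compounds tested were the hits of an earlier 50 µM broth growth screen of a drug-like diversity library run with polymyxin B.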

Row | SMILES | intramacrophage bacterial GFP load
1 | O=C(c1cc2cc(F)ccc2[nH]1)N1CCCC(CO)(Cc2cccc(Cl)c2)C1 (stereo not given) | inactive: 102
2 | Cc1ccn2c(CNCc3ccc4c(c3)OCO4)c(C(=O)N3CCCCCC3)nc2c1 | inactive: 32.2
3 | CN1C(=O)CC(CC(=O)N2CCCCC2c2nccs2)(c2ccc(-c3ccccc3)cc2)C1=O (stereo not given) | inactive: 55.6
4 | COCCN1C(=O)CC(CC(=O)N(C)CCC23CC4CC(CC(C4)C2)C3)(c2ccccc2OC)C1=O (stereo not given) | inactive: 35.3
5 | CCCc1ccc2oc(C(=O)NCCc3cccnc3)c(C)c2c1 | active: 20.1
6 | CSCCCNC(=O)c1oc2ccc(C)cc2c1C | inactive: 73.1
7 | CN(Cc1ccccc1C(F)(F)F)C(=O)CCC1(Cc2cccc3ccccc23)CCC(=O)N1 (stereo not given) | inactive: 125
8 | Cc1cccc2nc(CN(C)c3nncc(-c4ccc(Cl)cc4)n3)[nH]c12 | inactive: 122
9 | CCOC(=O)C1(Cc2ccccc2C)CCCN(S(=O)(=O)c2cccs2)C1 (stereo not given) | inactive: 63.3
10 | CCC(Nc1nc2nonc2nc1N1CCOCC1)c1cccs1 (stereo not given) | inactive: 63.5
11 | CC#CCN1C(=O)NC(CCCc2ccccc2)(C2CCN(C(=O)/C=C/c3ccccc3)CC2)C1=O (stereo not given) | active: 24.7
12 | Cc1ccc(OCCN(C)C(=O)C2CC23CCN(Cc2nc4ccccc4s2)CC3)cc1 (stereo not given) | inactive: 33.3
13 | Cc1nc(N2CCCCCCC2)ncc1C(C)NCc1ccccc1 (stereo not given) | active: 1.98
14 | COc1ccc2cc(C(=O)C3CCCN(C(=O)c4ccoc4C)C3)ccc2c1 (stereo not given) | inactive: 72.2
15 | COCc1ccc(C(=O)N2CCc3c([nH]c4ccccc34)C2c2cccc(C)n2)o1 (stereo not given) | inactive: 135
16 | Cc1nc(N2CCC(C(=O)N3CCNC(=O)C3c3cccc(F)c3)CC2)nc2ccc(C(C)C)cc12 (stereo not given) | inactive: 92.1
17 | CCS(=O)(=O)c1ncc(CN(C)C(C)c2ccccc2OC)n1Cc1ccccc1 (stereo not given) | active: 21
18 | CCCc1cc(CN(C)C(=O)CC2(c3cccc(C(F)(F)F)c3)CC(=O)N(CC)C2=O)n[nH]1 (stereo not given) | active: 11.5
19 | C=CC[C@@H]1CC=C[C@@H](C)N1C(=O)CC1(c2ccccc2)CC(=O)N(CCCOc2cccnc2)C1=O (stereo not given in full) | active: 15.9
20 | Cc1oc(-c2cccc(C(F)(F)F)c2)nc1CN(Cc1ccccc1)C[C@@H]1CCC(=O)N1 | inactive: 77.2

Row | SMILES | intramacrophage bacterial GFP load
21 | O=C(c1cn2ccsc2n1)N(Cc1ccncc1)Cc1cccc(OCCc2ccc(F)cc2)c1 | inactive: 127
22 | O=C(CC(c1ccccc1)c1ccccc1Cl)N1CCCC1 (stereo not given) | active: 11.7
23 | COc1ccc2c(c1)OC(C)CN(C(=O)/C(F)=C/c1ccccc1)C2 (stereo not given) | inactive: 42.2
24 | CN(Cc1n[nH]c2c1CCCCC2)C(=O)CC1(c2ccc(-c3ccccc3)cc2)CC(=O)N(C)C1=O (stereo not given) | inactive: 91.1
25 | COc1ccccc1C1(CC(=O)N2CCCC(c3ccccc3C)C2)CC(=O)N(C)C1=O (stereo not given) | inactive: 131
26 | CN(Cc1cccnc1)C(=O)C1(N2CCCCC2)Cc2ccccc2C1 | inactive: 59.3
27 | Cc1ccsc1CN(C)Cc1cnc(S(=O)(=O)C(C)C)n1Cc1ccccc1F | inactive: 66.1
28 | OC(Cc1ccccc1)c1ccc2c(c1)CN(Cc1cc(F)cc(F)c1)CCO2 (stereo not given) | inactive: 70.1
29 | CCOC(=O)C1(CCCc2ccccc2)CCN(C(=O)c2ccc(COC)o2)CC1 | active: 17.1
30 | COCCN1C(=O)CC(CC(=O)N2CCCC(c3cccc(C)c3)C2)(c2ccccc2OC)C1=O (stereo not given) | inactive: 86.8
31 | Cc1ccccc1-n1ncc2c1CC(C)(C)CC2NC(=O)CC(F)(F)F (stereo not given) | inactive: 121
32 | Cc1cc(C)n(CC(=O)N(Cc2ccncc2)Cc2cccc(OCCc3ccc(F)cc3)c2)n1 | inactive: 189
33 | CN(C)Cc1ccc(C(=O)N2CCCC(CCc3cccc(F)c3)C2)o1 (stereo not given) | active: 9.17
34 | CC(C)(O)C#Cc1ccc(C(=O)N2Cc3ccccc3OC(c3ccccc3)C2)cc1 (stereo not given) | inactive: 136
35 | CCOC(=O)C1(Cc2ccc(Cl)cc2)CCN(C(=O)c2ccc3nccnc3c2)CC1 | inactive: 50.3
36 | CCOC(=O)C1(CCc2ccccc2)CCCN(Cc2cnc(SC)nc2)C1 (stereo not given) | active: 22.9
37 | COc1cc(C(=O)N(Cc2ccncc2)Cc2cccc(OCCc3ccc(F)cc3)c2)cc(OC)c1OC | inactive: 62.8
38 | COC1CCN(C(=O)C2(N(C)CCc3ccccc3)Cc3ccccc3C2)CC1 | inactive: 101
39 | CCn1ccnc1CN1CCCC1C(=O)Nc1ccc(-c2cccc(F)c2)cc1 (stereo not given) | active: 7.43
40 | Cc1nonc1CN(C)C(=O)C1(N2CCCCC2)Cc2ccccc2C1 | inactive: 32.9

From the supplement of paper PMC12889115
